The IC50 comes from the fitted curve, where viability falls to half of the control; where the fit passes the top or lowest dose, that dose stands as a limit. AUC is the area under the same curve over the 256-fold range up to the top dose, as a fraction; the more sensitive the line, the further below 1. Where the top dose is marked as inferred, it was calculated from the reported fits. For some assays here: Where an entry number is given, a second screen of the drug exists; the two often differ.
These cell lines were tested with Cc1cc(N2CCOCC2)cc2[nH]c(-c3c(NC[C@@H](O)c4cccc(Cl)c4)cc[nH]c3=O)nc12 [BMS-536924] (assay: Viability of human cancer cell lines after 72 h of drug (GDSC screen)). Settings: top dose 4 µM; screen: GDSC drug entry 1091; top dose inferred.
Method: (§1)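 Human cancer cell lines in 384-well plates, medium with 10% serum, drug for 72 h over a 256-fold dose range (nine 2-fold or five 4-fold steps up to the top dose). Adherent lines were fixed and stained with the nucleic acid dye Syto60, suspension lines read with resazurin; signal relative to control wells, capped at 0 and 100%. One two-parameter sigmoid per drug and line, fitted in a mixed model over all curves with the slope shared within a line.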

Cell Line	AUC	IC50
NCI-H187 (small cell lung carcinoma, suspension)	0.987	> 4 µM
NCI-H209 (small cell lung carcinoma, suspension)	0.978	> 4 µM
NCI-H211 (small cell lung carcinoma, adherent)	0.951	> 4 µM
NCI-H526 (small cell lung carcinoma, suspension)	0.989	> 4 µM
NCI-H1092 (small cell lung carcinoma, suspension)	0.974	> 4 µM
NCI-H1417 (small cell lung carcinoma, suspension)	0.575	0.418 µM
NCI-H1836 (small cell lung carcinoma, suspension)	0.932	> 4 µM
NCI-H1838 (lung adenocarcinoma, adherent)	0.939	> 4 µM
NCI-H1869 (lung squamous cell carcinoma, adherent)	0.963	> 4 µM

Same assay, conditions: top dose 5.12 µM; screen: GDSC drug entry 62

Cell Line	AUC	IC50
NCI-H187 (small cell lung carcinoma, suspension)	0.762	1.98 µM
NCI-H209 (small cell lung carcinoma, suspension)	0.986	> 5.12 µM
NCI-H211 (small cell lung carcinoma, adherent)	0.882	> 5.12 µM
NCI-H510A (small cell lung carcinoma, semi-adherent)	0.953	> 5.12 µM
NCI-H526 (small cell lung carcinoma, suspension)	0.942	> 5.12 µM
NCI-H1092 (small cell lung carcinoma, suspension)	0.924	> 5.12 µM
NCI-H1417 (small cell lung carcinoma, suspension)	0.94	> 5.12 µM
NCI-H1836 (small cell lung carcinoma, suspension)	0.905	> 5.12 µM
NCI-H1838 (lung adenocarcinoma, adherent)	0.976	> 5.12 µM
NCI-H1869 (lung squamous cell carcinoma, adherent)	0.925	> 5.12 µM

These cell lines were tested with COc1cc(-c2nn([C@H]3CC[C@H](N4CCN(C(C)=O)CC4)CC3)c3ncnc(N)c23)ccc1NC(=O)c1cc2ccccc2n1C [A-770041] in the same assay as above. Settings: top dose 5.12 µM; top dose inferred.
Method: as §1

Cell Line	AUC	IC50
NCI-H187 (small cell lung carcinoma, suspension)	0.966	> 5.12 µM
NCI-H209 (small cell lung carcinoma, suspension)	0.986	> 5.12 µM
NCI-H211 (small cell lung carcinoma, adherent)	0.834	3.21 µM
NCI-H510A (small cell lung carcinoma, semi-adherent)	0.883	4.68 µM
NCI-H526 (small cell lung carcinoma, suspension)	0.99	> 5.12 µM
NCI-H1092 (small cell lung carcinoma, suspension)	0.988	> 5.12 µM
NCI-H1417 (small cell lung carcinoma, suspension)	0.982	> 5.12 µM
NCI-H1836 (small cell lung carcinoma, suspension)	0.974	> 5.12 µM
NCI-H1838 (lung adenocarcinoma, adherent)	0.969	> 5.12 µM
NCI-H1869 (lung squamous cell carcinoma, adherent)	0.9	> 5.12 µM

The cell lines below were run with O=C1NC(=O)c2c1c(-c1ccccc1Cl)cc1[nH]c3ccc(O)cc3c21 [Wee1 inhibitor 681640] in the same assay as above. Settings: top dose 2 µM; top dose inferred.
Method: as §1

Cell Line	AUC	IC50
NCI-H187 (small cell lung carcinoma, suspension)	0.985	> 2 µM
NCI-H209 (small cell lung carcinoma, suspension)	0.799	1.04 µM
NCI-H211 (small cell lung carcinoma, adherent)	0.976	> 2 µM
NCI-H510A (small cell lung carcinoma, semi-adherent)	0.962	> 2 µM
NCI-H526 (small cell lung carcinoma, suspension)	0.958	> 2 µM
NCI-H1092 (small cell lung carcinoma, suspension)	0.99	> 2 µM
NCI-H1417 (small cell lung carcinoma, suspension)	0.927	> 2 µM
NCI-H1836 (small cell lung carcinoma, suspension)	0.986	> 2 µM
NCI-H1838 (lung adenocarcinoma, adherent)	0.948	> 2 µM
NCI-H1869 (lung squamous cell carcinoma, adherent)	0.797	1.08 µM

What follows are cell lines tested with CCNc1cc(NC2CCC(O)CC2)nc(Nc2ccc3c(ccn3Cc3ccccc3)c2)n1 [CGP-082996 (CINK4)] in the same assay as above. Settings: top dose 5.12 µM; top dose inferred.
Method: as §1

Cell Line	AUC	IC50
NCI-H187 (small cell lung carcinoma, suspension)	0.952	> 5.12 µM
NCI-H209 (small cell lung carcinoma, suspension)	0.939	> 5.12 µM
NCI-H211 (small cell lung carcinoma, adherent)	0.951	> 5.12 µM
NCI-H510A (small cell lung carcinoma, semi-adherent)	0.935	> 5.12 µM
NCI-H526 (small cell lung carcinoma, suspension)	0.967	> 5.12 µM
NCI-H1092 (small cell lung carcinoma, suspension)	0.987	> 5.12 µM
NCI-H1417 (small cell lung carcinoma, suspension)	0.963	> 5.12 µM
NCI-H1836 (small cell lung carcinoma, suspension)	0.983	> 5.12 µM
NCI-H1838 (lung adenocarcinoma, adherent)	0.964	> 5.12 µM
NCI-H1869 (lung squamous cell carcinoma, adherent)	0.928	> 5.12 µM

These cell lines were tested with Cc1cccc(-c2[nH]c(C(C)(C)C)nc2-c2ccc3nccnc3c2)n1 [SB-525334] in the same assay as above. Settings: top dose 20 µM; top dose inferred.
Method: as §1

Cell Line	AUC	IC50
NCI-H187 (small cell lung carcinoma, suspension)	0.791	9.81 µM
NCI-H209 (small cell lung carcinoma, suspension)	0.536	1.58 µM
NCI-H211 (small cell lung carcinoma, adherent)	0.759	6.8 µM
NCI-H510A (small cell lung carcinoma, semi-adherent)	0.841	12.3 µM
NCI-H526 (small cell lung carcinoma, suspension)	0.943	> 20 µM
NCI-H1092 (small cell lung carcinoma, suspension)	0.825	12.1 µM
NCI-H1417 (small cell lung carcinoma, suspension)	0.824	15 µM
NCI-H1836 (small cell lung carcinoma, suspension)	0.98	> 20 µM
NCI-H1838 (lung adenocarcinoma, adherent)	0.965	> 20 µM
NCI-H1869 (lung squamous cell carcinoma, adherent)	0.966	> 20 µM

What follows are cell lines tested with NC(=O)c1ccc(N(C(N)=O)c2c(F)cccc2F)nc1-c1ccc(F)cc1F [VX-702] in the same assay as above. Settings: top dose 2 µM; top dose inferred.
Method: as §1

Cell Line	AUC	IC50
NCI-H187 (small cell lung carcinoma, suspension)	0.987	> 2 µM
NCI-H209 (small cell lung carcinoma, suspension)	0.978	> 2 µM
NCI-H211 (small cell lung carcinoma, adherent)	0.987	> 2 µM
NCI-H510A (small cell lung carcinoma, semi-adherent)	0.975	> 2 µM
NCI-H526 (small cell lung carcinoma, suspension)	0.982	> 2 µM
NCI-H1092 (small cell lung carcinoma, suspension)	0.977	> 2 µM
NCI-H1417 (small cell lung carcinoma, suspension)	0.979	> 2 µM
NCI-H1836 (small cell lung carcinoma, suspension)	0.987	> 2 µM
NCI-H1838 (lung adenocarcinoma, adherent)	0.971	> 2 µM
NCI-H1869 (lung squamous cell carcinoma, adherent)	0.985	> 2 µM

Each cell line was assayed with CC(C)=CC[C@@H](O)C1=CC(=O)c2c(O)ccc(O)c2C1=O [Shikonin] in the same assay as above. Settings: top dose 16 µM; top dose inferred.
Method: as §1

Cell Line	AUC	IC50
NCI-H187 (small cell lung carcinoma, suspension)	0.629	2.34 µM
NCI-H209 (small cell lung carcinoma, suspension)	0.728	4.71 µM
NCI-H211 (small cell lung carcinoma, adherent)	0.442	0.697 µM
NCI-H510A (small cell lung carcinoma, semi-adherent)	0.873	13.3 µM
NCI-H526 (small cell lung carcinoma, suspension)	0.643	2.45 µM
NCI-H1092 (small cell lung carcinoma, suspension)	0.573	1.59 µM
NCI-H1417 (small cell lung carcinoma, suspension)	0.477	0.856 µM
NCI-H1836 (small cell lung carcinoma, suspension)	0.466	0.801 µM
NCI-H1838 (lung adenocarcinoma, adherent)	0.923	> 16 µM
NCI-H1869 (lung squamous cell carcinoma, adherent)	0.575	1.65 µM

What follows are cell lines tested with O=C(c1cc(Cc2n[nH]c(=O)c3ccccc23)ccc1F)N1CCN(C(=O)C2CC2)CC1 [Olaparib] in the same assay as above. Settings: top dose 5 µM; screen: GDSC drug entry 1017; top dose inferred.
Method: as §1

Cell Line	AUC	IC50
NCI-H187 (small cell lung carcinoma, suspension)	0.981	> 5 µM
NCI-H209 (small cell lung carcinoma, suspension)	0.702	1.21 µM
NCI-H211 (small cell lung carcinoma, adherent)	0.927	> 5 µM
NCI-H510A (small cell lung carcinoma, semi-adherent)	0.98	> 5 µM
NCI-H526 (small cell lung carcinoma, suspension)	0.966	> 5 µM
NCI-H1092 (small cell lung carcinoma, suspension)	0.978	> 5 µM
NCI-H1417 (small cell lung carcinoma, suspension)	0.89	> 5 µM
NCI-H1836 (small cell lung carcinoma, suspension)	0.988	> 5 µM
NCI-H1838 (lung adenocarcinoma, adherent)	0.987	> 5 µM
NCI-H1869 (lung squamous cell carcinoma, adherent)	0.962	> 5 µM

Same assay, conditions: top dose 10 µM; screen: GDSC drug entry 1495

Cell Line	AUC	IC50
NCI-H187 (small cell lung carcinoma, suspension)	0.949	> 10 µM
NCI-H209 (small cell lung carcinoma, suspension)	0.722	2.81 µM
NCI-H211 (small cell lung carcinoma, adherent)	0.925	> 10 µM
NCI-H526 (small cell lung carcinoma, suspension)	0.971	> 10 µM
NCI-H1092 (small cell lung carcinoma, suspension)	0.985	> 10 µM
NCI-H1417 (small cell lung carcinoma, suspension)	0.773	4.65 µM
NCI-H1836 (small cell lung carcinoma, suspension)	0.877	> 10 µM
NCI-H1838 (lung adenocarcinoma, adherent)	0.982	> 10 µM
NCI-H1869 (lung squamous cell carcinoma, adherent)	0.951	> 10 µM

These cell lines were tested with Cc1ccc(-n2nc(C(C)(C)C)cc2NC(=O)Nc2ccc(OCCN3CCOCC3)c3ccccc23)cc1 [BIRB 0796] in the same assay as above. Settings: top dose 10 µM; top dose inferred.
Method: as §1

Cell Line	AUC	IC50
NCI-H187 (small cell lung carcinoma, suspension)	0.988	> 10 µM
NCI-H209 (small cell lung carcinoma, suspension)	0.975	> 10 µM
NCI-H211 (small cell lung carcinoma, adherent)	0.983	> 10 µM
NCI-H510A (small cell lung carcinoma, semi-adherent)	0.982	> 10 µM
NCI-H526 (small cell lung carcinoma, suspension)	0.99	> 10 µM
NCI-H1092 (small cell lung carcinoma, suspension)	0.984	> 10 µM
NCI-H1417 (small cell lung carcinoma, suspension)	0.979	> 10 µM
NCI-H1836 (small cell lung carcinoma, suspension)	0.984	> 10 µM
NCI-H1838 (lung adenocarcinoma, adherent)	0.952	> 10 µM
NCI-H1869 (lung squamous cell carcinoma, adherent)	0.984	> 10 µM

These cell lines were tested with COc1cc(N2CCN(C)CC2)ccc1Nc1ncc2c(n1)N(C)c1ccccc1C(=O)N2C [XMD8-85] in the same assay as above. Settings: top dose 8 µM; top dose inferred.
Method: as §1

Cell Line	AUC	IC50
NCI-H187 (small cell lung carcinoma, suspension)	0.987	> 8 µM
NCI-H209 (small cell lung carcinoma, suspension)	0.944	> 8 µM
NCI-H211 (small cell lung carcinoma, adherent)	0.909	> 8 µM
NCI-H510A (small cell lung carcinoma, semi-adherent)	0.957	> 8 µM
NCI-H526 (small cell lung carcinoma, suspension)	0.884	> 8 µM
NCI-H1092 (small cell lung carcinoma, suspension)	0.976	> 8 µM
NCI-H1417 (small cell lung carcinoma, suspension)	0.955	> 8 µM
NCI-H1836 (small cell lung carcinoma, suspension)	0.979	> 8 µM
NCI-H1838 (lung adenocarcinoma, adherent)	0.961	> 8 µM
NCI-H1869 (lung squamous cell carcinoma, adherent)	0.959	> 8 µM

Reference: the supplement of paper PMC4967469
